Out of some 48,000 compounds screened, about 550 (1.1%) were called active. Not shown: some 4% with an inconclusive outcome. Cut-off read from the data, not from the text of the source: active = potency below about 15 µM; inconclusive = mostly about 16 µM to 33 µM; inactive = weaker than that. Some of the results follow.
target: Lysosomal acid glucosylceramidase (Homo sapiens) (UniProt P04062); test: Glucocerebrosidase; settings: purified enzyme, resorufin glucoside fluorescence (screen aimed at inhibitors), 20 min;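 note: the screen sought inhibitors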
In short: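 Wild-type enzyme at 0.2 nM final in 50mM citric acid/KH2PO4, 10mM sodium taurocholate, 0.01% tween-20, pH 5.9, with resorufin beta-D-glucopyranoside at 30 uM final. Compounds titrated, 20 min at RT, red fluorescence read; AC50 from titration.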
Potency is the fitted concentration of half-maximal effect.

Sequence of UniProt P04062 (P04062 whole entry, looked up): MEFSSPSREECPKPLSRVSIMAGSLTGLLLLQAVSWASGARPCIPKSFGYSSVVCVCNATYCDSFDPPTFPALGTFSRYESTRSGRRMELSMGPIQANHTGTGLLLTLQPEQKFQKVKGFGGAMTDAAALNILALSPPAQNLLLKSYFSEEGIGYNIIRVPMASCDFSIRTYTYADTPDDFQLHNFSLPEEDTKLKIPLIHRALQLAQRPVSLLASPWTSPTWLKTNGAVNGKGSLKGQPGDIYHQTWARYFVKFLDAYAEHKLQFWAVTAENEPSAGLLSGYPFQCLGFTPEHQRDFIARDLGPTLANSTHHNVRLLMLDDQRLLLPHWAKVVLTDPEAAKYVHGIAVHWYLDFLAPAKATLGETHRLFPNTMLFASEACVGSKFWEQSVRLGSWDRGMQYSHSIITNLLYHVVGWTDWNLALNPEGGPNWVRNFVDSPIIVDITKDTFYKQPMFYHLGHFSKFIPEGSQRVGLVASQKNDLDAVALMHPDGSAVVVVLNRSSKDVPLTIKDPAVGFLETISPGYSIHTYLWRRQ

Potency, inactive:
N#Cc1nc(Cc2cccc3ccccc23)oc1N1CCOCC1 > 76.9 µM
Brc1ccc(CSc2nnc(-c3ccccn3)n2Cc2ccco2)cc1 > 76.9 µM
CCC(C)(C)n1nnnc1CN1CCSCC1 > 76.9 µM
CCc1[nH]nc2c1C(C(C)C)C(C#N)=C(N)O2 (configuration not stated) > 76.9 µM
COc1cc(NC(=O)CN(c2ccc(C)cc2)S(=O)(=O)c2c(C)nn(C)c2C)cc(OC)c1 > 76.9 µM
Cc1c(Cl)cccc1NC(=O)Cn1cccc1 > 76.9 µM
CCOC(=O)N1CCN(S(=O)(=O)c2cccc3cccnc23)CC1 > 76.9 µM
O=C(NCCCN1CCOCC1)c1ccc(CS(=O)(=O)Cc2ccccc2Cl)o1 > 76.9 µM
C1=CN2CCC1C(c1ccccc1)C2 (configuration not stated) > 76.9 µM
c1ccc(N(c2ccccc2)c2nc(-n3ccnc3)nc(-n3ccnc3)n2)cc1 > 76.9 µM
O=C(Nc1cccc2ncccc12)c1ccc2c(c1)OCCO2 > 76.9 µM
CN1C(=S)SC(C)(C)C1/[N+]([O-])=C/c1cccnc1 (configuration not stated) > 76.9 µM
COc1ccccc1-n1c(SCC(=O)Nc2ccc3c(c2)OCO3)nc2c(c1=O)SCC2 > 76.9 µM
O=c1c2ccccc2nc(SCc2cccc(F)c2)n1Cc1ccco1 > 76.9 µM
COc1ccc(Cn2cccc(NC(=O)Nc3ccc(C#N)cc3)c2=O)cc1 > 76.9 µM
CC1CCN(C(=O)CN(C2CCCCC2)S(C)(=O)=O)CC1 > 76.9 µM
Cc1ccccc1N=C1NC(=O)CS1 > 76.9 µM
CCC(=O)NC1=C(C#N)C2(CCCC2)Cc2ccccc21 > 76.9 µM
CC1CCCN(c2ccc(C(=O)NCCc3ccccc3)cn2)C1 (configuration not stated)
O=C(CSc1nnc(CNc2ccc(F)cc2)n1Cc1ccco1)N1CCCC1 > 76.9 µM
Cc1c(NC(=O)c2cccc(F)c2)c(=O)n(-c2ccccc2)n1C > 76.9 µM
CC(C)[C@@H](C(=O)NCC1CCC(C(=O)O)CC1)n1nnc2ccccc2c1=O (some centres not stated) > 76.9 µM
COc1cccc(Nc2nnc(SCC(=O)N3CCOCC3)s2)c1 > 76.9 µM
Cc1cccc(-n2ncc3c(N)ncnc32)c1 > 76.9 µM
COc1ccc(OC)c(N(CC(=O)N2CCCC2)S(=O)(=O)c2ccc(OC)c(OC)c2)c1 > 76.9 µM
CC(=O)Nc1ccc(NC(=O)CN(c2ccccc2Cl)S(C)(=O)=O)cc1 > 76.9 µM
Cc1ccc(-c2ccc(OCC(=O)N3CCOCC3)cc2)cc1 > 76.9 µM
CCOC(=O)c1c(-c2ccco2)csc1N > 76.9 µM
CC(=O)Oc1ccc(-c2nc(-c3cccnc3)no2)cc1 > 76.9 µM
CC(C)C(OC(=O)c1ccco1)C(=O)NCc1ccccc1 (configuration not stated)
COc1cccc2sc(N3CCN(c4nc5ccccc5s4)CC3)nc12 > 76.9 µM
CC(OC(=O)c1cc2sccc2n1C)C(=O)NCC1CCCO1 (configuration not stated) > 76.9 µM
CCSc1nnc(-c2ccc(S(=O)(=O)N3CCCC3)cc2)n1C > 76.9 µM
CCC1CCCCN1C1Sc2ccc(C(=O)OC)cc2NC1=O (configuration not stated) > 76.9 µM
Cc1cc(C)nc(N(C#N)CC(=O)c2ccccc2)n1 > 76.9 µM
O=C1CSC(c2ccccn2)N1c1cccc(Cl)c1 (configuration not stated) > 76.9 µM
COC(=O)C1CCN(C(=O)C2CCCCC2)CC1 > 76.9 µM
CCC(=O)N1CCc2cc(S(=O)(=O)CCC(=O)Nc3cccc(F)c3)ccc21 > 76.9 µM
CCOC(=O)C1CCN(C(=O)CN(Cc2ccccc2)S(C)(=O)=O)CC1 > 76.9 µM
O=C(NCC(=O)N(Cc1ccco1)C(C(=O)NC1CCCC1)c1cccnc1)c1cccs1 (configuration not stated) > 76.9 µM
CCC(=O)NCc1nc2ccccc2n1Cc1ccccc1F > 76.9 µM
CC(C)(C)c1csc(NC(=O)Cn2c(=O)oc3ccccc32)n1 > 76.9 µM
CCOc1ccc(Cc2nnc(N)s2)cc1OCC > 76.9 µM
Cc1ccc(C(=O)c2cn[nH]c2-c2cc(Cl)ccc2O)cc1 > 76.9 µM
Cc1nc2ccccc2c2c1C(=O)N(C(C)C)C2=O > 76.9 µM
Cc1cc(C(=O)OCC(=O)N2CC(=O)Nc3ccccc32)no1 > 76.9 µM
CN(c1ccc(C(=O)Nc2ccccc2C(F)(F)F)cc1)S(C)(=O)=O > 76.9 µM
